{
  "source": "paper PMC10726135",
  "note": "The other results are listed elsewhere or left out. At the low end of the ranking, values are background and their order means little. The protein was read in a cell extract, so binding may be indirect.",
  "data": [
    {"target": "T1, HNF4alpha8 (COS-7 nuclear extract) (UniProt P41235-5)", "T1 sequence": "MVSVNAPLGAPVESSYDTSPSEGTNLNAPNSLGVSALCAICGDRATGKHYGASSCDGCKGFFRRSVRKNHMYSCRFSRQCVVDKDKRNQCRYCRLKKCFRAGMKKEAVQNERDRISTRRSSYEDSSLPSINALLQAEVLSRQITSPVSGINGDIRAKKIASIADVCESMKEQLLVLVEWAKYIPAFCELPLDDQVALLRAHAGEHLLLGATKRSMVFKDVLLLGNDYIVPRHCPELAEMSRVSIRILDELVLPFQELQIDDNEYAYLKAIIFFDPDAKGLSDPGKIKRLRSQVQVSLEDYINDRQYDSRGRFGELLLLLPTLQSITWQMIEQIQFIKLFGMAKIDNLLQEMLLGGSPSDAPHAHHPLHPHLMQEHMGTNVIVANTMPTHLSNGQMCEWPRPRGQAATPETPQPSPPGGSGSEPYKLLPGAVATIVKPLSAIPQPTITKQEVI", "assay": "protein-binding microarray", "details": "COS-7 nuclear extract on double-stranded Agilent 4x180k PBM; binding buffer, salt, pH and temperature not given; high values mean tight binding; double strand, one strand shown; sequences stand for … in …GCCTAGGGAGATTAGAGTATCGGTCGA", "values": [
      {"sequence": "AAAAGCTTATCTGCACAATGAAACTTGGTC", "binding signal (log2 normalized intensity)": 1.08},
      {"sequence": "TGGTGAAAGGAGGAATCTGTGAAGGTCAGG", "binding signal (log2 normalized intensity)": 0.84},
      {"sequence": "TTGTTTGTTTTGAGGGTTAAAGGAGATAAT", "binding signal (log2 normalized intensity)": 1.28},
      {"sequence": "CAGAAAGGCAAGAAGTATGACAACAAAGCA", "binding signal (log2 normalized intensity)": -1.13},
      {"sequence": "TTTGAAACATAACAGCAACAACACAGATCA", "binding signal (log2 normalized intensity)": -1.4},
      {"sequence": "TCTTGGCTTCAAAGGTCACTGTCCTAATTT", "binding signal (log2 normalized intensity)": 4.5},
      {"sequence": "AAAAAACACTCTCAATCTTTGCCCTCTTGG", "binding signal (log2 normalized intensity)": 3.63},
      {"sequence": "GTATCCCTTGCTCAACTCCCTCTGAAGGGA", "binding signal (log2 normalized intensity)": -1.36},
      {"sequence": "AAAAAGCCTGAGCATCTTATCAGCAGGAGA", "binding signal (log2 normalized intensity)": -1.21},
      {"sequence": "AGCCTCACCAACAGGATTGTGAAACGTTTG", "binding signal (log2 normalized intensity)": -0.103},
      {"sequence": "TGGACTTTGGAATTAAGGAGATTTGGCTTT", "binding signal (log2 normalized intensity)": 5.99},
      {"sequence": "AGGCAGTGTCACAGAAATCATGTAGCCAGA", "binding signal (log2 normalized intensity)": -1.35},
      {"sequence": "AAGTGTTTAACTCTTTATCTTTCTCCTACA", "binding signal (log2 normalized intensity)": -1.24},
      {"sequence": "TATCAGCAGGAGGAGGAGCCAGTGAAGACT", "binding signal (log2 normalized intensity)": -1.17},
      {"sequence": "CTGTCTGCCATGGGCCTGGCTGAGCCTGGG", "binding signal (log2 normalized intensity)": -1.3},
      {"sequence": "GAAGGAGCACCAATGACCTTTGACCCTTCT", "binding signal (log2 normalized intensity)": 11.2},
      {"sequence": "AACCTAGGAAATCAAAAACCATTTGACAAT", "binding signal (log2 normalized intensity)": -1.12},
      {"sequence": "AGAAGAAAAGAGTTGCTCAAACCAACATTA", "binding signal (log2 normalized intensity)": -1.31},
      {"sequence": "TAGCCTGAAAATGTTTGCCGACCTCCTGAC", "binding signal (log2 normalized intensity)": 0.714},
      {"sequence": "AAGAAAAAACAGGTGTTCTTTCCCTCCAGC", "binding signal (log2 normalized intensity)": -1.32},
      {"sequence": "TGGACAGGGGTGTGTTGACCGATAACCCTC", "binding signal (log2 normalized intensity)": 2.75},
      {"sequence": "CTGGCAGAGGAAAAAGTCCCTGGTCCCATA", "binding signal (log2 normalized intensity)": -0.772},
      {"sequence": "TCCAGAACCAAGATTTACATCCTATCCTGG", "binding signal (log2 normalized intensity)": -1.28},
      {"sequence": "ACGTTGTACCCCACAGGTATTCTTTCATCC", "binding signal (log2 normalized intensity)": 1.46},
      {"sequence": "AACAGCACTTGTGCAGTTTTTCTGCCGAAG", "binding signal (log2 normalized intensity)": -1.37},
      {"sequence": "TGTGTACCTCATCTTCTTTCCTGGTGCCTC", "binding signal (log2 normalized intensity)": 1.31},
      {"sequence": "TCATTCCCCTAGTATATTGGCTTGGCTGTG", "binding signal (log2 normalized intensity)": 2.39},
      {"sequence": "AGCCTGCAGCACCTTGATGCTGGACTTCAG", "binding signal (log2 normalized intensity)": 3.36},
      {"sequence": "CGCCTGACCTGGCCCCTGAGGGTGCTGAGC", "binding signal (log2 normalized intensity)": -1.22},
      {"sequence": "GTTCTCTCCGGGTAAAGGTGAAGGCTGACC", "binding signal (log2 normalized intensity)": 2},
      {"sequence": "ACAGTCTTGGGCACAAAGTACAAAAGAGGC", "binding signal (log2 normalized intensity)": 2.22},
      {"sequence": "TTCAAGGGCCACTCAGTTGAAGTTCCAGAA", "binding signal (log2 normalized intensity)": -1.28},
      {"sequence": "AGTTGATTGCACCCTTCCCTAAGATTTATC", "binding signal (log2 normalized intensity)": 1.67},
      {"sequence": "AGGCCATCCCAGTTACTCAGCGAATACCAA", "binding signal (log2 normalized intensity)": -1.3},
      {"sequence": "GATTACGTGTTCCCAGGATGAGGCCGTTCT", "binding signal (log2 normalized intensity)": 1.32},
      {"sequence": "AGGGGGATTACCTAAACAGCAACTGTAGTG", "binding signal (log2 normalized intensity)": -1.28},
      {"sequence": "AAAGACCTTGCTGATAAAACAGCATGCGGT", "binding signal (log2 normalized intensity)": -1.15},
      {"sequence": "GAAAACATCATTCCGTGACTGAGCTCGCGC", "binding signal (log2 normalized intensity)": -1.24},
      {"sequence": "CCACCCCTCCTCCTGGGGGCTTTTGTTTAG", "binding signal (log2 normalized intensity)": 1.23},
      {"sequence": "ATGTCAGGAGCCCCACTGTAGTAAGGGAGT", "binding signal (log2 normalized intensity)": -0.892},
      {"sequence": "TGCAACAGTGACCCAAATATGGTCCCTGAC", "binding signal (log2 normalized intensity)": -0.137},
      {"sequence": "TGGGGGCCACGCACACCTGGATCTTCCAGG", "binding signal (log2 normalized intensity)": -1.3},
      {"sequence": "TCACATACTGTGGACATAAAAAGATAATGC", "binding signal (log2 normalized intensity)": -0.763},
      {"sequence": "AAGTTCAGTCGAATTTGGTTACTCGCCTTA", "binding signal (log2 normalized intensity)": -1.09},
      {"sequence": "CCTCATGCCTTATCTACATAGTCCCTGCAC", "binding signal (log2 normalized intensity)": -0.173},
      {"sequence": "AAAGCCTAAAATATTCACTATCTGATCCTT", "binding signal (log2 normalized intensity)": 0.685},
      {"sequence": "ATAAGCTCTGCGCCCTTGGAATATCCTGCC", "binding signal (log2 normalized intensity)": -1.3},
      {"sequence": "CCGCTTGGCCCTCTTCCAAGTGTTCTTTAC", "binding signal (log2 normalized intensity)": 1.72},
      {"sequence": "TAAACCCCTGGAGCACAGAAGGAGGGCGGG", "binding signal (log2 normalized intensity)": -1.27},
      {"sequence": "TAGAAGTACTAGATTTGGAACTCAGAGTTT", "binding signal (log2 normalized intensity)": 0.701},
      {"sequence": "TGCATATCAGCATGGCTGCAGAGAACAGCA", "binding signal (log2 normalized intensity)": -1.32},
      {"sequence": "TGGGGAGGTTTGGCTGAGAGGGATAAAAGG", "binding signal (log2 normalized intensity)": -1.21},
      {"sequence": "CAGTCAATTACATGGCAGATGTCTGTGTTC", "binding signal (log2 normalized intensity)": 1.84},
      {"sequence": "TCCCCGGGCGGGATGGGGTCACGAGACGGT", "binding signal (log2 normalized intensity)": 2.27},
      {"sequence": "CTTTCATACGTTTAACAGTTCCTCCTGGAA", "binding signal (log2 normalized intensity)": 0.801},
      {"sequence": "TGTCTTTGGGTGGAGGGGAGGTTATCTTGG", "binding signal (log2 normalized intensity)": 1.02},
      {"sequence": "AGTGAAGACTGAAAAGAGATAACTAGATGA", "binding signal (log2 normalized intensity)": -1.2},
      {"sequence": "CATTCCAGAAAGACAGCTGCATTTGTCCGG", "binding signal (log2 normalized intensity)": 0.215},
      {"sequence": "GGTCCAGCCTACCCACCCACACCTCCCCTT", "binding signal (log2 normalized intensity)": 4.48},
      {"sequence": "CCTGTTTGACCTTCGAACCCTTGCCATTTA", "binding signal (log2 normalized intensity)": 7.81},
      {"sequence": "GACCTAGATGGAATGTTGTGTCTTCCAGTT", "binding signal (log2 normalized intensity)": 1.45},
      {"sequence": "TGAATGCCTAGGTGACAAGGAAAACTACAC", "binding signal (log2 normalized intensity)": -1.39},
      {"sequence": "GTGAGTGGACTTTGGTCCTGGTCAGACTTG", "binding signal (log2 normalized intensity)": 6.78},
      {"sequence": "TTCTGACCTTTAAGCACCCAGAGCCCCACC", "binding signal (log2 normalized intensity)": 5.07},
      {"sequence": "AAGAATGAAAGCCAAGGCAGATATGAAAGA", "binding signal (log2 normalized intensity)": -1.29},
      {"sequence": "TCTCTCTCCTCTCCAGCCCATCCTAAGCCC", "binding signal (log2 normalized intensity)": 2.28},
      {"sequence": "TTTTTTCAGGTGTTGCTCTCTTGCCATTCG", "binding signal (log2 normalized intensity)": 0.21},
      {"sequence": "AGCCCTAACCAGGGGTGGGGACCTTTGGGC", "binding signal (log2 normalized intensity)": 3.85},
      {"sequence": "CCCACAGTGCCCTCTATTGGCTGTTTAGTA", "binding signal (log2 normalized intensity)": 1.56},
      {"sequence": "TTTAATTCTGAGTTCCAATAGCAAAACCTG", "binding signal (log2 normalized intensity)": -1.32},
      {"sequence": "CTGGACTTTGGCTGCAAAATTTGAACAAAA", "binding signal (log2 normalized intensity)": 2.14},
      {"sequence": "TCATCACTTAGGATATTCCAAGGGGTTAGA", "binding signal (log2 normalized intensity)": 0.889},
      {"sequence": "CATCTTTGAAGAGCACAGGGTCAGCAGATC", "binding signal (log2 normalized intensity)": 1.59},
      {"sequence": "CCAAGCCCCAAAAACTTGGACTCTATAGCC", "binding signal (log2 normalized intensity)": 4.35},
      {"sequence": "CCAAAGGTCATCTGTCACTCTAGATAAAGA", "binding signal (log2 normalized intensity)": 1.84},
      {"sequence": "CCTTGCCCCACCCCCCACCCCAGAAGTATG", "binding signal (log2 normalized intensity)": 6.5},
      {"sequence": "CCAATTATTGCGAGTTTAGGAGGGTTCCTG", "binding signal (log2 normalized intensity)": -0.0269},
      {"sequence": "TGCATTGTGGTATTCATTCAACTTTGACTT", "binding signal (log2 normalized intensity)": 2.53},
      {"sequence": "AATTCATGACTCTCTTATAGGTGTTTATAA", "binding signal (log2 normalized intensity)": 0.379},
      {"sequence": "CTAGGCAGTCCACAGACAAAGGCCCGCTGC", "binding signal (log2 normalized intensity)": -1.27},
      {"sequence": "CCGCGCCCAGCGGTTCCGGGCGGCAGCACA", "binding signal (log2 normalized intensity)": -1.34},
      {"sequence": "GATGGCCCTCTCCAAGGCGGTGTGGAGGTC", "binding signal (log2 normalized intensity)": 1.91},
      {"sequence": "TCCTAGACCTTTGACCTTTATACCTGTACG", "binding signal (log2 normalized intensity)": 6.76},
      {"sequence": "CATCAGATCTGGGTGTGCCATTCTTCCAGT", "binding signal (log2 normalized intensity)": 0.00778},
      {"sequence": "CCACGGCAACCTTCCTGGAAACCTTCTCTG", "binding signal (log2 normalized intensity)": -1.3},
      {"sequence": "GATGAGGCACCAACACTTCCCAATCAGAAA", "binding signal (log2 normalized intensity)": -1.31},
      {"sequence": "CCAACAGGTGAAGACATGCTGGTGTGTGAT", "binding signal (log2 normalized intensity)": 0.875},
      {"sequence": "CCATAGAGTCCACCACTGACCTTAGACCCT", "binding signal (log2 normalized intensity)": 6.66},
      {"sequence": "TGTCCACCAAGGAGGTGCTGACAGGCCCTC", "binding signal (log2 normalized intensity)": -1.42},
      {"sequence": "GCCTCTTTATCTCCTCCCCTTGAGACTTTA", "binding signal (log2 normalized intensity)": 2.97},
      {"sequence": "ACAGGGCAAGGAACGGAATGTGTGATAAGG", "binding signal (log2 normalized intensity)": -1.37},
      {"sequence": "GATCACTGCCTTGGAGGCACTCCCAGGATA", "binding signal (log2 normalized intensity)": -1.44},
      {"sequence": "TTGACGCCACCTGAAGGCAGGTGTGGGTTG", "binding signal (log2 normalized intensity)": 1.34}
    ]}
  ]
}
